Measured values as given in PubChem BioAssay AID686978 (National Center for Advancing Translational Sciences (NCATS), 2013).
Values joined by “and” are separate entries in the source; they are usually repeats but may differ in a detail not shown here. Identical values can stand only once. Screen size: about 420,000 compounds; about 64,000 (15%) were called active. This list was built around the results that the source calls inconclusive (neither active nor inactive); the mix of calls is not that of the screen. Calls come from the whole dose curve; as a rule, active = well fitted inhibition curve with a large enough effect; inconclusive = small, poorly fitted or top-dose-only effect; inactive = flat fitted curve, though single readings scatter. Potencies of inconclusive entries are left out as doubtful fits.

Assay: qHTS for Inhibitors of human tyrosyl-DNA phosphodiesterase 1 (TDP1): qHTS in cells in absence of CPT; note: nearly all actives have a fitted effect of over 55% in size
Details: DT40 Tdp1-/- hTDP1 cells, no CPT, ATP luminescence, 48 h; activity change, negative = growth inhibition: at 46.2 µM (top of the series) unless noted
Outline: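 Cells were dispensed at 400 per well, compounds added by pin tool, plates incubated ≥48 hr at 37 °C, then CellTiter-Glo added for 30 min at room temperature before luminescence reading. Line: DT40 Tdp1-/- complemented with hTDP1; camptothecin omitted.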
% is set by controls: 0 for no effect and ±100 for the full control effect; potency is the fitted concentration of half-maximal effect; tags give direction and shape of the fitted curve.

| Compound | Potency | activity change, negative = growth inhibition |
| --- | --- | --- |
| CSc1ccc(CSCC(=O)N2CCN(S(=O)(=O)c3ccc(C)cc3C)CC2)cc1 | inconclusive [inhibitor, single point] | – |
| COc1ccc(CNC(=O)Cn2c(=O)cc(-c3ccccc3)c3c(C)nn(C)c32)cc1 | – | inactive: -4.22% |
| Cc1cccc(N2CCN(C(=S)NCc3ccco3)CC2)c1C | inconclusive [inhibitor, partial curve] | – |
| CC1=C(C(=O)N(C(C)C)C(C)C)CC(CC(=O)NCc2cccs2)C(=O)N1Cc1ccccc1 (stereo not given) | inconclusive [inhibitor, single point] | – |
| CCCCC1CN2CCc3c([nH]c4ccccc34)C2(C)C1 (stereo not given) | active: 18.4 µM | – |
| CC(=O)Nc1ccc(NC(=O)C2Cc3c(-c4cccc(F)c4)ccnc3O2)cc1 (stereo not given) | – | inactive: -23.8% |
| COc1ccc(S(=O)(=O)N(CC(=O)Nc2cccnc2)c2ccc(Cl)cc2)cc1 | – | inactive: -24.9% |
| CC(C)C1C(C#N)=C(N)Oc2n[nH]c(-c3ccc4ccccc4c3)c21 (stereo not given) | active: 10 µM | – |
| Cc1ccccc1NC(=O)c1c(C)oc2ccc(O)c(CN3CCN(C)CC3)c12 | inconclusive [inhibitor, single point] | – |
| O=C(CN1CCN(S(=O)(=O)c2cc(Cl)ccc2Cl)CC1)c1ccc(O)c(O)c1 | active: 2.59 µM | – |
| Cc1nc2cc(NC(=O)c3ccco3)ccc2n1C | – | inactive: -2.26% |
| COc1ccc(C(CNC(=O)c2cc(S(=O)(=O)N3CCCC3)ccc2Cl)N2CCCC2)cc1 (stereo not given) | inconclusive [inhibitor, single point] | – |
| O=C(c1cccc(Cl)c1)C1CCCN(Cc2ccc(N3CCNC3=O)cc2)C1 (stereo not given) | inconclusive [inhibitor, single point] | – |
| CC1(C)NC(=O)N(CCC(=O)Nc2cc(C(F)(F)F)ccc2Cl)C1=O | – | inactive: 17.5% |
| CC(C)(C)c1ccc(-c2nc(SCC(=O)Nc3ccccc3F)n3[nH]c(=O)cc3n2)cc1 | inconclusive [inhibitor, single point] | – |
| CC(CCc1ccc(O)cc1)NCCc1ccc(O)c(O)c1 (stereo not given) | active: 15 µM | – |
| CCc1ccc2oc(C(=O)Nc3ccccc3C(=O)OC)cc(=O)c2c1 | inconclusive [inhibitor, full curve, poor fit] | – |
| CN1CCN(C(=O)/C(=C/c2cccs2)NC(=O)c2ccco2)CC1 | – | inconclusive: -36% [inhibitor] |
| CCc1cc(-c2n[nH]c(=S)n2-c2ccccc2C)cs1 | – | inactive: -28.9% |
| COc1ccc(NC(=O)c2c[nH]c(=O)n(-c3ccc(C)c(C)c3)c2=O)c(OC)c1 | inconclusive [inhibitor, partial curve] | – |
| O=C(c1csnn1)N1CCC2(CC1)CCN(C(c1ccccc1)c1ccccc1)CC2 | inconclusive [inhibitor, single point] | – |
| O=C1c2ccccc2[C@@H]2C[C@H](NC34CC5CC(CC(C5)C3)C4)[C@@H](O)CCN12 | inconclusive [inhibitor, single point] | – |
| O=C(NCCCn1ccnc1)c1cc(Cl)cc(Cl)c1 | – | inactive: -11.2% |

| Compound | Potency | activity change, negative = growth inhibition |
| --- | --- | --- |
| COc1ccc(/C=C/c2nc(S(=O)(=O)c3ccccc3)c(N(C)C)o2)cc1OC | inconclusive [inhibitor, single point] | – |
| CCOC(=O)NNC(=O)CCn1c2c(c3ccccc31)CCCC2 | inconclusive [inhibitor, partial curve] | – |
| CC(C)S(=O)(=O)c1csc(NC(=O)Nc2cc(Cl)ccc2Cl)c1Cl | inconclusive [inhibitor, single point] | – |
| COC(=O)c1ccc(COC(=O)C(NC(=O)Cc2ccccc2)C(C)C)cc1 (stereo not given) | active: 16.4 µM | – |
| COc1cc(CCCN2C(=O)C(=O)NC[C@@H]2CCCCN)cc(OC)c1OC | – | inactive: -0.077% |
| O=C(Nc1ccc(Cl)c(C(F)(F)F)c1)C1CCN(S(=O)(=O)c2cccc3nonc23)CC1 | active: 5.17 µM | – |
| CN1CCN(c2ccc(-c3cc(NC=O)c4ncc(-c5ccccc5)n4c3)cc2)CC1 | active: 16.4 µM | – |
| COc1cccc(CNc2ccc(S(N)(=O)=O)cc2)c1OC | – | inactive: -22.8% |
| COc1ccc(CNC(=O)COCc2cc(-c3cccs3)on2)cc1 | inconclusive [inhibitor, single point] | – |
| COc1ccc(CNc2nc3ccc(C)cc3s2)c(OC)c1OC | inconclusive [inhibitor, single point] | – |
| Cc1ccc(C)c(S(=O)(=O)NC(C)C(=O)NCc2ccccn2)c1 (stereo not given) | – | inactive: -8.48% |
| Cc1cc2oc(=O)cc(CN3CCCC3)c2cc1C | inconclusive [inhibitor, single point] | – |
| O=C(O)c1ccccc1NC(=S)NC(NC(=O)c1ccccc1[N+](=O)[O-])C(Cl)(Cl)Cl (stereo not given) | – | inactive: 3.8% |
| CCCCn1c(NCc2ccc(N(C)C)cc2)nc2ccccc21 | active: 14.6 µM and active: 25.9 µM | – |
| COc1ccccc1CN1C[C@@H]2C[C@@H](c3cccc(C)c3)N3CCC[C@@]23C1=O | inconclusive [inhibitor, partial curve] | – |
| O=C(CCOc1ccccc1)N(Cc1cccnc1)c1nc2c(F)cccc2s1 | active: 7.31 µM | – |
| CSC(=Nc1ccc(Cl)cc1)N[n+]1ccccc1 | inconclusive [inhibitor, single point] | – |
| NC(Cc1ccc(Cl)cc1)c1csc(Nc2ccc(C(=O)NCCCO)cn2)n1 (stereo not given) | inconclusive [inhibitor, single point] | – |
| Cc1cccc(C2=NC(C(F)(F)F)(C(F)(F)F)c3c(n(-c4ccc(F)cc4)c(=O)[nH]c3=O)N2)c1 | active: 16.4 µM | – |
| O=C(Cc1cccc2ccccc12)Nc1ccc(-c2cc3ccccc3oc2=O)cc1 | inconclusive [inhibitor, partial curve] | – |
| COc1ccc(C2=CC(c3ccccc3Cl)n3nc(-c4ccc(Cl)cc4)nc3N2)cc1 (stereo not given) | inconclusive [inhibitor, single point] | – |
| C=CCn1c(-c2ccc(Cl)cc2)cnc1SC(C)C(=O)NC(N)=O (stereo not given) | inconclusive [inhibitor, partial curve] | – |
